Laboratory results from paper PMC4336329 (PLoS ONE, 2015).
About 14,000 (4.5%) of roughly 310,000 compounds showed an effect of 50% or more. Effects have a minus sign here. The list shows a part of the results.

target: human ether-à-go-go-related gene (hERG) potassium channel (human, UniProt Q12809); assay: primary screen, population patch clamp on CHO cells stably expressing hERG
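Also: peak tail current of the secondary pulse compared with the same well before compound.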

Sequence of human ether-à-go-go-related gene (hERG) potassium channel (Q12809 whole entry, looked up): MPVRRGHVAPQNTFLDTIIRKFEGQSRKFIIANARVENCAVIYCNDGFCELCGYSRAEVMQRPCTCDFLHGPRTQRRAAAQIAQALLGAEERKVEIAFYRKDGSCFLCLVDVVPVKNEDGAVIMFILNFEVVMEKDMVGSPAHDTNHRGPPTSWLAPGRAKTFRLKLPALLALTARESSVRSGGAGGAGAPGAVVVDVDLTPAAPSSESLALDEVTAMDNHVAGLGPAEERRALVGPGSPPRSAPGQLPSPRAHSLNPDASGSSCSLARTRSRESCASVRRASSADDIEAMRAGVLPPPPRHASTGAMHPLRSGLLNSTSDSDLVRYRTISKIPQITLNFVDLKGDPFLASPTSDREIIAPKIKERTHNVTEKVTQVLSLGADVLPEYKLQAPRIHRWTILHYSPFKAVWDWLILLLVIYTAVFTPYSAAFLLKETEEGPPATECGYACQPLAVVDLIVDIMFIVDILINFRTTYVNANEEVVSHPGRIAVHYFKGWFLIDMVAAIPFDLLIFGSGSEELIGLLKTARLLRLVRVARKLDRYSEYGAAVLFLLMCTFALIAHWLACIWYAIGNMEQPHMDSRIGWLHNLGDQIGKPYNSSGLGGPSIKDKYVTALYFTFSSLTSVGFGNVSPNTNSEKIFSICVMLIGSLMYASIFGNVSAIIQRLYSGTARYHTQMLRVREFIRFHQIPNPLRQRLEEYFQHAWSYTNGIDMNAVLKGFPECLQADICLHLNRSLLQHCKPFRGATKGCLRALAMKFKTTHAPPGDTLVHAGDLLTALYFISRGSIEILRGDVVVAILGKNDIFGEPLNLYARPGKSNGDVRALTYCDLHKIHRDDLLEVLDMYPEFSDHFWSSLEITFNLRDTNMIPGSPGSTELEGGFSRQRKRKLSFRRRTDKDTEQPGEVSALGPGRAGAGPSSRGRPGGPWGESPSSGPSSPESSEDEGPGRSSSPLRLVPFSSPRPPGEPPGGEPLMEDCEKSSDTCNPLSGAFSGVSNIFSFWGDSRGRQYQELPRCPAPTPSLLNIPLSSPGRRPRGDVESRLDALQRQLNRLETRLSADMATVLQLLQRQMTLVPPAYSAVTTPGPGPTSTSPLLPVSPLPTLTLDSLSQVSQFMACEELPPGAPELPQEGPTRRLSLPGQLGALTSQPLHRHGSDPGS

SMILES | hERG current change (%, negative = inhibition) at 10uM [%]
Cc1ccc(-c2[nH]nc3c2C(c2ccsc2)C(C#N)=C(N)O3)cc1 (stereo not drawn) | -18.9
O=C(CCN1CCCO1)N1CCCC(N2CCN(c3ccccc3F)CC2)C1 (stereo not drawn) | 6.67
Cc1ccc(C)c(NC(=O)COC(=O)c2ccc(S(=O)(=O)N3CCCCC3)cc2)c1 | -3.34
Cc1ccc(N2CC(C(=O)OCC(=O)NNC(=O)c3ccccc3)CC2=O)cc1 (stereo not drawn) | 5.66
Cc1cc(=O)[nH]c(-c2ccccc2OC(F)(F)F)n1 | 12.3
C=CCn1c(SCc2nc3ccccc3c(=O)[nH]2)nnc1-c1cc2cc(Cl)ccc2o1 | -12.3
C=CCNC(=O)c1cc(Cl)ccn1 | -5.66
O=C(NC1CCCN(Cc2ccc(Cl)cc2)C1)c1ccccc1C(F)(F)F (stereo not drawn) | -16.9
COc1ccc(OCC(=O)Nc2ccccc2N2CCCCC2)cc1 | 5.52
Br.Cc1ccc2nc(-c3ccccc3)cn2c1 | -2.74
CC(C)c1ccc(NC(=O)COC(=O)c2ccc(CN3CCCC3=O)cc2)cc1 | 8.82
Cc1oc(-c2ccccc2Cl)nc1CN1CCCC1c1ccc(F)cc1 (stereo not drawn) | -10.8
CCN1C(=O)C(Cc2nc3ccccc3c(=O)n2C)c2ccccc21 (stereo not drawn) | -3.68
CCCCNC(=O)OC(C)CNC(=O)OC (stereo not drawn) | -7.79
O=C(NCC1CCCO1)c1ccc(F)c2ccccc12 (stereo not drawn) | 3.7
Cc1nc([N+](=O)[O-])c(N2CCN(Cc3ccccc3)CC2)n1Cc1ccccc1 | -64.3
CN1CCC2(CC1)N=C(c1ccc(F)cc1)C(=S)N2C(=O)c1ccc(C(C)(C)C)cc1 | -6.86
CCC(C)[C@H]1CNCCN1CCc1cccc2ccccc12 (stereo partly drawn) | 7.69
C/C(CCc1oc2ccc(Br)cc2c1-c1ccc(C)o1)=N/O | 4.5

SMILES | hERG current change (%, negative = inhibition) at 10uM [%]
CCN(CC(=O)NC1CCS(=O)(=O)C1)C(=O)/C=C/c1cccs1 (stereo not drawn) | 61.8
COc1cccc(OCCNC(=O)c2ccc(C)cc2)c1 | 8.59
Cc1ccc(-n2c(SCC(=O)NCCC3=CCCCC3)nc3n[nH]c(C)c3c2=N)cc1Cl | -9.38
O=C(c1ccc2c(c1)N(Cc1ccccc1)CCS2)N1CCC2(CC1)OCCO2 | -56.1
COc1ccc(CC2(C)OC(c3ccc(C)cc3)=NN2C(C)=O)cc1 (stereo not drawn) | 1.44
Cc1cc(C)nc(/N=C(\N)Nc2ccc(CC(=O)OC(C)C)cc2)n1 | -67.6
CCCn1nnnc1SCC(=O)N1C(C)CCCC1C (stereo not drawn) | 18.9
COC(=O)CSc1nnc(CNC(=O)c2ccco2)n1-c1ccc(F)cc1 | -10.3
COc1ccc(C(=O)Nc2ccc(NC(=O)c3cccs3)cn2)cc1 | 7.25
COC(=O)CSc1ncc(S(=O)(=O)c2ccccc2)c(=O)[nH]1 | 26.4
Cc1ccc(C)c(N2CCN(c3nnnn3-c3ccccc3)CC2)c1 | 5.08
CC(OC(=O)CCCN=C1NS(=O)(=O)c2ccccc21)C(=O)c1ccccc1 (stereo not drawn) | -7.8
O=C(NN=C1CCN(Cc2ccccc2)CC1)c1ccccc1O | 16
COc1ccc(C(=O)CC(c2ccccc2)C2C(=O)CCCC2=O)cc1 (stereo not drawn) | 0.865
CCc1cc(C(N)=S)ccn1 | 14.7
Cc1ccc(C(=O)Nc2cc(Cl)ccc2-n2cncn2)o1 | -17.9
O=C(O)CCC(=O)Nc1ccc(Oc2ncnc3cc(Cl)ccc23)nc1 | 16.6
CCCCNC(=O)C1CCC(CNc2nc(=S)[nH]c3ccccc23)CC1 (stereo not drawn) | 15.6
Cc1ccc(Cn2nnc3c(=O)[nH]c(C4CCCN(C(=O)Nc5ccc(F)cc5)C4)nc32)cc1 (stereo not drawn) | -5.1

SMILES | hERG current change (%, negative = inhibition) at 10uM [%]
CCC(Sc1ccc(C(=O)O)cc1)C(=O)O (stereo not drawn) | 14.5
CCOc1ccc(N2CC(C(=O)Nc3ccccc3OC)CC2=O)cc1 (stereo not drawn) | -6.29
CC(C)(C)c1ccc(C(=O)NCc2nnc(SCC(=O)NCc3ccco3)o2)cc1 | 6.17
Cc1c(NC(=O)c2cccnc2Cl)c(=O)n(-c2ccccc2)n1C | 10.6
NC(=O)c1ccccc1NC(=O)/C=C/c1cccc(Cl)c1 | -10.1
CCN(CC)C(=O)c1sc(NC(=O)c2ccc3c(c2)OCO3)c(C(N)=O)c1C | -1.11
CN(CCNC(=O)C1CCC(=O)N(Cc2ccc(Cl)cc2)C1)CCc1ccccc1 (stereo not drawn) | -72.6
CCOC(=O)c1c(C)[nH]c(C(=O)NNC(=O)c2ccc(Br)cc2)c1C | -17.8
O=C1CCCC2=C1C(c1ccc(O)c(O)c1)Nc1ccc3ncccc3c12 (stereo not drawn) | 16
CCCc1cc(-c2ccc(O)c(OCC)c2)c(C#N)c(N)n1 | 3.84
CCc1cccc(C)c1NC(=O)COC(=O)c1cc([N+](=O)[O-])ccc1N1CCOCC1 | 15
CC1(C)CC(C)(c2ccc(O)cc2O)N(c2cccc(Cl)c2)C(=S)N1 (stereo not drawn) | 2.04
Cc1ccc([C@@H]2C3COCC=C3C(C#N)=C(N)C2(C#N)C#N)o1 (stereo partly drawn) | -9.59
CCCCCC(=O)Nc1cccc(C2=NOC3(C2)C[C@H](C(N)=O)N(C(=O)c2ccccc2C(=O)c2ccccc2)C3)c1 (stereo partly drawn) | -1.69
O=C(CSc1nnc(Cn2c(=O)sc3ccccc32)n1-c1ccccc1)N1CCOCC1 | -5.2
O=C(NN=C1CCN(Cc2ccccc2)CC1)c1cc(Br)ccc1O | -4.59
O=C(O)C1CSC(c2ccco2)N1 (stereo not drawn) | 5.11
COc1ccc(OCc2nnnn2-c2ccccc2)cc1 | 0.624
COc1ccc(CNC(=O)c2csc3c2CCCC3)cc1 | -0.424
